Results as given in PubChem BioAssay AID686970 (National Center for Advancing Translational Sciences (NCATS), 2013).
The campaign covered roughly 360,000 compounds. About 6,000 (1.7%) were called active. This list was built around the results that the source calls inconclusive (neither active nor inactive); the mix of calls is not that of the screen. Calls follow the shape of the dose curve; as a rule, active = well fitted cell-killing curve with a large enough effect; inconclusive = small, poorly fitted or top-dose-only effect, or effect the other way; inactive = flat fitted curve, though single readings scatter. Potencies of inconclusive entries are left out as doubtful fits.

Test: qHTS for induction of synthetic lethality in tumor cells producing 2HG: qHTS for the HT-1080-NT fibrosarcoma cell line;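 also: NT is the 2HG producing partner of a matched IDH1 knockdown line; nearly all actives have a fitted effect of over 55% in size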;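 as to activity, negative = less viability: 0% = DMSO-treated cells and -100% = media-only wells without cells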
Conditions: HT-1080-NT fibrosarcoma viability, CellTiter-Glo ATP luminescence, 48 h; activity, negative = less viability: at 46.1 µM (top of the series) unless noted
Method in brief: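 Fibrosarcoma NT cells, 750 per well in 5% FBS RPMI, were exposed to compound for 48 hours. Viability: CellTiter-Glo luminescence.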
Potency is read from the fitted curve at half-maximal effect; tags tell the direction and shape of the fitted curve.

SMILES	Potency	activity, negative = less viability
CCCNC(=O)c1cc2c(c(-c3cccc(-c4ccc(C#N)cc4)c3)n1)[C@@H](CCO)N(C(=O)CC)C2	inconclusive [cytotoxic, single point]	–
CCCCc1ccc(NC(=O)N[C@H](C(=O)O)C(C)CC)cc1 (stereo not given in full)	inactive	–
NNC(=O)/C(=C\c1cccs1)NC(=O)c1ccccc1	inconclusive [rising, partial curve]	–
CC(=O)c1cccc(NC(=O)c2ccc(C)c(S(=O)(=O)N3CCOCC3)c2)c1	inactive	–
O=C(Nc1ccc(Cl)c(S(=O)(=O)N2CCOCC2)c1)c1ccc(OCC2CCCO2)cc1 (stereo not given)	active: 18.4 µM	–
S=C(Nc1ccc(Cl)cc1)c1nc2ccccc2[nH]1	inconclusive [cytotoxic, single point]	–
C=C(C)COc1ccc(-c2nc(N)ncc2Oc2ccccc2OCC)c(O)c1	inconclusive [cytotoxic, single point]	–
Cc1ccc(C)c(N2CCN(C(=O)c3ccc4c(c3)c(C)c(C)n4C)CC2)c1	inconclusive [cytotoxic, single point]	–
COc1ccc2sc(NC(=O)c3ccco3)nc2c1	inconclusive [cytotoxic, single point]	–
O=C1N(Cc2cccc(Cl)c2)C[C@@H]2C[C@@H](c3cccn3-c3nccs3)N3CCC[C@@]123	inconclusive [cytotoxic, partial curve]	–
COc1ccc(-c2nn(C)c3sc(C(=O)N4CCOCC4)cc23)cc1OC	inactive	–
O=c1c2ccccc2ncn1-c1ccc(Cl)cc1Cl	inconclusive [cytotoxic, single point]	–
O=C1NC(c2ccccc2)=C(c2ccc3ccccc3n2)C(c2ccc(F)cc2)N1 (stereo not given)	inactive	–
O=C(O)c1ccc(/C=N\Nc2ccccn2)cc1	inconclusive [cytotoxic, partial curve]	–
Cn1c2ccccc2c(=O)c2ccc(C#Cc3ccc(N)cc3)cc21	inconclusive [cytotoxic, single point]	–
NC(=S)N/N=C/c1ccccc1OCc1cccc(Cl)c1	inconclusive [cytotoxic, single point]	–
CCC/C=N/NC(=O)c1[nH]c2c([N+](=O)[O-])cccc2c1C	inconclusive [cytotoxic, full curve]	–
CCN(CC)CCNC(=O)C1CCN(S(=O)(=O)c2c(C)noc2/C=C/c2ccccc2F)CC1	inconclusive [cytotoxic, single point]	–
COc1ccc(-c2oc(NC(=O)CSc3ncn[nH]3)c(C#N)c2-c2ccc(OC)cc2)cc1	inconclusive [cytotoxic, single point]	–
Cc1ccc(OCc2nc3ccccc3n2C(C(=O)NC(C)(C)C)c2ccccc2)cc1 (stereo not given)	inconclusive [cytotoxic, single point]	–
Cc1ccc(SCc2cc(=O)[nH]c(N3CCOCC3)n2)cc1	inactive	–
Cc1sc(NC(=O)C2C3CCC(C3)C2C(=O)O)c(C(N)=O)c1-c1ccc(C(C)(C)C)cc1 (stereo not given)	inconclusive [cytotoxic, partial curve]	–
Cc1nnc(N2C(=O)C(O)=C(C(=O)c3ccco3)C2c2ccc(F)cc2)s1 (stereo not given)	–	inconclusive: 11.6%
COC(=O)CN1C(=O)[C@H]2[C@@H](C3CC3)N3C(=O)CN(CCO)C(=O)[C@@]3(Cc3ccccc3)[C@H]2C1=O	inconclusive [cytotoxic, single point]	–

SMILES	Potency	activity, negative = less viability
O=C(Nc1nccs1)c1cc([N+](=O)[O-])ccc1Cl	inconclusive [cytotoxic, single point]	–
CCC(C)NC(=O)c1ccc2nc(-c3ccc(OC)c(OC)c3)c(-c3ccc(OC)c(OC)c3)nc2c1 (stereo not given)	inactive	–
CCOC(=O)/C=C/C(=O)Nc1ccc(S(=O)(=O)N(C)c2ccccc2)cc1	inconclusive [cytotoxic, single point]	–
CCC(C)(C)NC(=O)C(c1ccc(C)cc1)N(Cc1cccs1)C(=O)c1ccc2c(c1)OCCO2 (stereo not given)	inconclusive [cytotoxic, single point]	–
O=C(NC(c1ccc(-c2ccccc2)cc1)c1cnccn1)C1CCN(Cc2cccs2)CC1 (stereo not given)	inconclusive [cytotoxic, single point]	–
CCOc1ccc(N=Nc2c(C)noc2C)cc1	inconclusive [rising, partial curve]	–
Cc1cc(Oc2nc3ccccn3c(=O)c2/C=C(\C#N)C(=O)NC2CCS(=O)(=O)C2)ccc1Cl (stereo not given)	inconclusive [cytotoxic, single point]	–
COc1cc(CNc2ccc3[nH]c(=O)[nH]c3c2)cc(Br)c1OCC(=O)NC(C)(C)C	inconclusive [cytotoxic, single point]	–
Cc1cccc(N2CCN(C(=O)Cc3cn(C)c4ccccc34)CC2)c1C	inconclusive [cytotoxic, single point]	–
COc1ccc(-c2cc3nc(-c4ccccc4)cc(N4CCCC(O)C4)n3n2)cc1 (stereo not given)	inconclusive [cytotoxic, single point]	–
O=C(c1ccc(=O)oc1)N1CCCc2ccccc21	inactive	–
CCN(CC)c1ccc(NC(=O)Nc2cccc(C(C)=O)c2)cc1	inconclusive [cytotoxic, single point]	–
COc1ccccc1NC(=O)c1ccc(NC(=O)C2CC2)cc1	inactive	–
O=C(NCc1ccccc1CN1CCCC1)c1ccc(S(=O)(=O)Nc2ccccc2F)cc1	inactive	–
CC(=O)Nc1ccnn1C1CCN(C(=O)c2cccc(C)c2C)CC1	inactive	–
COc1ccc(-c2nc(-c3ccc(NC(=O)c4ccc(Br)o4)cc3)no2)cc1OC	inconclusive [cytotoxic, single point]	–
CC(NC(=O)NC1CCCCC1)C(c1cccs1)N1CCN(c2ccccc2)CC1 (stereo not given)	inactive	–
O=C(C1CCCN1S(=O)(=O)c1ccc(Cl)cc1)N1CCCCC1 (stereo not given)	inactive	–
O=C(Nc1cccnc1)c1ccc(COc2ccccc2Br)cc1	inconclusive [cytotoxic, single point]	–
Cc1ccc(C(=O)Sc2cccccc2=O)cc1	inconclusive [cytotoxic, full curve, poor fit]	–
Cn1c(=O)n(C)c2cc(N3CCCCC3)c(NC(=O)c3ccccc3)cc21	inconclusive [rising, partial curve, poor fit]	–
Cc1cc(NC(=O)CS(=O)(=O)c2cn(Cc3ccccc3Cl)c3ccccc23)no1	inconclusive [cytotoxic, partial curve]	–
O=C1C=C(c2ccc(F)c(Cl)c2)C[C@@H](c2ccc(F)cc2)C1	inconclusive [rising, single point]	–
O=C(NCC1CC1)c1ccc2c3n(nc2c1)-c1ccccc1CO3	inconclusive [cytotoxic, single point]	–

SMILES	Potency	activity, negative = less viability
Cc1ccc2c(c1)c1c3n2CCNC3CCC1 (stereo not given)	inconclusive [cytotoxic, single point]	–
O=C1CCCC2=C1C(c1ccco1)Nc1ccc(C(=O)c3ccccc3)cc1N2 (stereo not given)	inconclusive [cytotoxic, single point]	–
COc1ccc(CNC(=O)c2cccc3c(-c4cccc(C(N)=O)c4)coc23)cc1OC	inconclusive [cytotoxic, full curve]	–
Oc1cccc2ccc(Nc3ccccn3)nc12	active: 5.8 µM	–
O=C(CCSCCc1ccccn1)Nc1ccc(Cc2ccncc2)cc1	inactive	–
CCOC(=O)Cn1nc(NC(=O)c2cc(OC)cc(OC)c2)cc1C	inactive	–
CNC(=S)/N=C/NOCc1c(Cl)cccc1Cl	inactive	–
CCN(CC(=O)Nc1cc(C)on1)CC(=O)Nc1ccccc1C(F)(F)F	inactive	–
CC1=C(C(=O)N(C)C)CC(CC(=O)NCc2cccc3ccccc23)C(=O)N1Cc1ccc(F)cc1 (stereo not given)	inactive	–
c1ccc2c(c1)ncn2CCCOc1ccc2c(c1)CCC2	inconclusive [cytotoxic, single point]	–
COc1cc(/C=C2\SC(=S)N(CCC(=O)Nc3ccccc3)C2=O)cc(OC)c1OC	inconclusive [cytotoxic, single point]	–
COC(=O)c1cnc(Nc2nc(C(N)Cc3ccc(OC)cc3)cs2)nc1C(F)(F)F (stereo not given)	active: 23.1 µM	–
N#Cc1c(N)nc(Sc2ccc(Cl)cc2)c(C#N)c1-c1ccccc1Cl	inconclusive [cytotoxic, partial curve]	–
Cn1cccc1/C=C1\CCc2ccccc2C1=O	inconclusive [cytotoxic, partial curve]	–
NS(=O)(=O)c1ccc(N/N=C2/CCCCC2C2CCCCC2)c([N+](=O)[O-])c1 (stereo not given)	active: 18.4 µM	–
C=CCSC1=N/C(=C\c2ccc(C(=O)O)cc2)C(=O)S1	inactive	–
COc1ccc(Nc2cc(Nc3cc(OC)c(OC)c(OC)c3)ncn2)cc1	inactive	–
Cc1[nH]c2ccccc2c1/C=N/NC(=O)c1cc(-c2ccccc2)n[nH]1	active: 14.6 µM	–
COc1cc(C2NC(=O)N(C)C(C)=C2C(=O)OCc2ccccc2)cc(Br)c1O (stereo not given)	inactive	–
CCCn1c(=N)n(CC(=O)c2ccc(OCC(=O)OC)cc2)c2ccccc21	inactive	–
O=C1/C(=C\c2cccc(O)c2O)SC(=S)N1Cc1ccccc1	inconclusive [cytotoxic, partial curve]	–
Cc1ccc(-c2csc(C(O)c3ccc(F)c(F)c3)n2)cc1C (stereo not given)	inconclusive [cytotoxic, single point]	–
